Certain results were filed several times, with different values. They are shown here; other results are not. An entry can have further records. Values that stand side by side are repeated measurements (runs, samples, wells, individuals or studies).
Key:
Format in all cases: toxicity, cell-based
HEK-293T = assay: Multiplex assay against HEK293T; conditions: human;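 on Population Tubulin-Different-Phenotype (%): share of the cells with healthy nuclei that show this phenotype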
In short: (§1)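 Compound was added to live cells that had been stained at seeding with Hoechst33342, BioTracker Green Microtubule Cytoskeleton Dye, MitoTracker Red and Annexin V Alexa Fluor 680, and imaging followed on a CQ1 microscope at 37°C and 5% CO2. CellPathfinder machine-learning gating divided cells into Hoechst high-intensity objects or normal cells, normal cells into healthy, pyknosed or fragmented nuclei, and pyknosed cells into mitotic or apoptotic. Tubulin, mitochondrial-mass and membrane-permeability phenotypes are per cents of healthy-nucleus cells.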

Fibroblast = assay: Multiplex assay against human fibroblast; in short: as §1
U2OS = assay: Multiplex assay against U2OS; conditions: human; in short: as §1
[1] = 12 h, 10 µM, compound concentration 10 uM, replicate 1
[2] = 12 h, 10 µM, compound concentration 10 uM, replicate 2
[3] = 24 h, 10 µM, compound concentration 10 uM, replicate 1
[4] = 24 h, 10 µM, compound concentration 10 uM, replicate 2
[5] = 12 h, 1 µM, compound concentration 1 uM, replicate 1
[6] = 12 h, 1 µM, compound concentration 1 uM, replicate 2
[7] = 24 h, 1 µM, compound concentration 1 uM, replicate 1
[8] = 24 h, 1 µM, compound concentration 1 uM, replicate 2

COc1cc(C)c(Sc2cnc(NC(=O)c3ccc(CNC(C)C(C)(C)C)cc3)s2)cc1C(=O)N1CCN(C(C)=O)CC1 (stereo not drawn)
Population Mitochondria Different-Phenotype (%) (HEK-293T; [1]): 16% and 4% | Population Tubulin-Different-Phenotype (%) (HEK-293T; [1]): 28% and 3% | Population Apoptotic (%) (HEK-293T; [2]): 14% and 4% | Population Tubulin-Different-Phenotype (%) (HEK-293T; [2]): 45% and 5% | Population Mitochondria Different-Phenotype (%) (HEK-293T; [3]): 16% and 3% | Population Tubulin-Different-Phenotype (%) (HEK-293T; [3]): 41% and 6% | Population Tubulin-Different-Phenotype (%) (HEK-293T; [4]): 39% and 5% | Population Mitochondria Different-Phenotype (%) (Fibroblast; [1]): 1% and 7% | Population Tubulin-Different-Phenotype (%) (Fibroblast; [2]): 10% and 55% | Population Mitochondria Different-Phenotype (%) (Fibroblast; [3]): 1% and 5% | Population Mitotic Cells (%) (Fibroblast; [3]): 42% and 8% | Population Tubulin-Different-Phenotype (%) (Fibroblast; [3]): 3% and 15% | Population Mitochondria Different-Phenotype (%) (Fibroblast; [4]): 4% and 27% | Population Tubulin-Different-Phenotype (%) (Fibroblast; [4]): 13% and 55% | Population Membrane Permeable-Phenotype (%) (U2OS; [1]): 36% and 10% | Population Membrane Permeable-Phenotype (%) (U2OS; [2]): 28% and 8% | Population Mitotic Cells (%) (U2OS; [3]): 21% and 71%

CC[C@@H]1C(=O)N(C)c2cnc(Nc3ccc(C(=O)N[C@H]4CC[C@H](N5CCN(CC6CC6)CC5)CC4)cc3OC)nc2N1C(C)C [VOLASERTIB]
Population Mitochondria Different-Phenotype (%) (HEK-293T; [5]): 57% and 16% | Population Apoptotic (%) (HEK-293T; [6]): 6% and 19% | Population Apoptotic (%) (HEK-293T; [7]): 46% and 15% | Population Fragmented Nuclei (%) (HEK-293T; [7]): 32% and 10% | Population Mitochondria Different-Phenotype (%) (HEK-293T; [7]): 67% and 22% | Population Tubulin-Different-Phenotype (%) (Fibroblast; [5]): 10% and 48% | Population Mitochondria Different-Phenotype (%) (Fibroblast; [7]): 33% and 3% | Population Tubulin-Different-Phenotype (%) (Fibroblast; [7]): 52% and 11% | Population Mitotic Cells (%) (Fibroblast; [8]): 0% and 35% | Population Pyknosed Nuclei (%) (Fibroblast; [8]): 2% and 21% | Population Pyknosed Nuclei (%) (U2OS; [6]): 6% and 24%

Source: ChEMBL document CHEMBL4689842, “EUbOPEN Chemogenomics Library wave 1” (2021)
